Laboratory results from the supplement of paper PMC11417369.
This is one part of the list.

Tested on: PfAP2-HC AP2 domain (GST-tagged)
Test: gcPBM binding intensity (ln(normalized median fluorescence intensity)); higher = stronger DNA binding
How it was run: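 For binding intensity, the highest Masliner-normalised natural-log median intensity across replicate spots of either probe orientation was taken. Protein bound to the array was stained with Alexa488 anti-GST antibody and scanned at 488 nm. The protein, GST-tagged P. falciparum DNA-binding domains from E. coli at about 25 μg on average, had been applied for 1 h to an Agilent 4 × 180k array of primer-extended double-stranded 36-bp intergenic genomic probes and negative controls.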

Sequence	gcPBM binding intensity (ln)
ATAATAAATGTCTTCAATGAAGTGGAAATGCTGTTA [TGCATGCA_negctrl_site238]	9.55
ATATATACATAGAATTGTACATAATTTATGTTCATT [XGTACX_site7426]	9.45
TTGGAGTTCATATGTGGTACACATTTAAATATATTT [XGTACX_site5582]	9.74
ATCATGGAAAAAACAAATGGGCTACATTACCTTTTG [GTGCAC_negctrl_site487]	9.63
GATATAAACGTATATGTACATATATATATATATATA [GTGCAC_negctrl_site186]	10.5
AAAAAAATAAATAAGACACACACAAAAAAAAAAAAA [CACACA_site8404]	11
TCTTGTTATAATAATCAATATATGGGTATACTTATG [CACACA_negctrl_site1618]	9.59
AAAAGGATTTTTTATACACACACTAACTAATGTATA [CACACA_site2356]	9.88
AAATAATAAATATATCGTACAAATATCATATATAAA [XGTACX_site2771]	9.69
TTTTTTCTTTTTATAACACACAGGTGAAAAATAATA [CACACA_site1850]	9.52
TCCTGTTGAGAATGGCGTACATATAAATATTATATA [XGTACX_site1841]	9.45
TTTCCTCATTTTATCATACACACTTGTTTATATGTG [CACACA_site8202]	9.87
TATTACTTTATATATACACACATATAACATAAATGC [CACACA_site3948]	9.78
CAGGTTCTTATATAGTGTACTATAGACATTCAATTG [XGTACX_site7239]	9.64
TAAATAATAATAAAATGTACATTATATATGTATATG [XGTACX_site8672]	9.73
TTTTTTTTTTTTTTCTGTACTGATACTTATAGAGTT [XGTACX_site4736]	9.49
ATATACTTACATATTACACACAATATTTTTAAATGG [CACACA_site5916]	9.76
CTTTTGCCCAAAAAGGTACACACCACAAAGTACATA [CACACA_site8169]	9.61
TATTTATAATTAAATACACACATATATTATAGATTT [CACACA_site6435]	9.67
TTGTATATACTATACACACACATACATACATACATA [CACACA_site814]	10
TTTTATTCATCATATTGTACATTCTTGTATTTATAG [XGTACX_site8534]	9.83
AATAAAAAATAAAAAAGTACATGATGAAAAGGTTTA [XGTACX_site7615]	9.99

Sequence	gcPBM binding intensity (ln)
TCCCTGATGTTATTTAATATACCATAAAAAAAAAAA [CACACA_negctrl_site1472]	9.23
CACACTTTATAATGTTGTACGATACATTATACCAAA [XGTACX_site941]	9.67
TATATATATATATATACATGCATACAATTTTATGAG [TGCATGCA_site466]	9.61
ACCCATATTCTTTTTACACACTTGAATAAAAAATAT [CACACA_site4797]	9.64
GAGATATAAAAGTGTACACATATTGTTATCCATATT [CACACA_site5441]	9.73
AAAGAAATAAAAAAAAGTACACAATTATAAATATAT [XGTACX_site3428]	9.69
GTATGTAATATTTTAGTGCAAAAAAAAAAAAAAAAA [GTGCAC_site9790]	9.01
CGCGAACATACATACACACACATATTTATATAGGTA [CACACA_site6241]	10.1
AAAATACTTTGAATTTGTACATATAGACATAATATT [XGTACX_site6181]	9.59
GATTATCTATCGCTTGAATGAAATGAAATCATGCAA [GTGCAC_negctrl_site471]	9.41
ATAATAAATGATAGCACACATATGTACATATATACA [CACACA_site864]	9.87
AATACCGGAAAGCAAACACACATTTTAAAACCATAA [CACACA_site3862]	10.2
AAATAAAATAAAAGCACACAAAATGTAAATAATTAT [CACACA_site2775]	10.2
ACTATAAATATTTATAAACACACAAATATATATATT [CACACA_site7891]	9.88
ATTTATAAAACAGGCACACATATAATAAATTTTATA [CACACA_site2600]	9.79
TAATAATTATTGCACGCACACAAAAACCTATAGATT [CACACA_site2931]	9.86
ATACAATACACCGAACGTACATAAATCTATCTTTTA [XGTACX_site3668]	9.73
ATTTTTTTTTTTACAGTGGAACCATATTTGCTCATT [CACACA_negctrl_site940]	9.72
TATATATATATAATTTGTACATATATATGTAACAAT [XGTACX_site8728]	9.55
TTCTGCTACCACTTGAATGTCAATGAAATTAAAAAA [CACACA_negctrl_site1164]	9.44
TTTTAAAAAAAACAAAAACATTGTCATATGGAAAAT [CACACA_negctrl_site297]	9.51
GTATGTTAATTTAATTGTACAAAAAGATACACTGAT [XGTACX_site5710]	9.71

Sequence	gcPBM binding intensity (ln)
AAATATAAAAAATATACACACATATAAAATCTATAT [CACACA_site7406]	9.91
AGGAACAATATATTTGCACACAAAAAATATATATTT [CACACA_site3316]	9.97
TTTATATATCAATACATTATGTATTAAGTCTTACAT [TGCATGCA_negctrl_site499]	9.77
CAAAAAAAATTATACACACACACACCGATATATATA [CACACA_site4719]	11.1
TTTTAATTAAAAAAATATATAATAAAATTAAATTAT [CACACA_negctrl_site95]	9.32
GGTATATAAAAATATTGTACGAAAATATGCATATAA [XGTACX_site2501]	9.63
ATGTTAATCATTAAAAATAAAGTTTAATATAAGAAT [XGTACX_negctrl_site155]	9.66
CAAAACAAGCAAAAATGTACTTGATAAATATTTTCT [XGTACX_site1776]	9.65
AACATACCCATATACACACACACATAAATACAGATA [CACACA_site4744]	10.5
ATTTAATTCTTTTGTTATAAAATTTTAGTATATATA [CACACA_negctrl_site1649]	9.66
GCTAAAAGTATATGCACACACATATATATGCACATA [CACACA_site1635]	10.2
TTTTGTACTTCATGCGTGCACAGAAATATATTATAT	9.69
GAATAAGATAGATATACACACCATTATAAATATAAA [CACACA_site5392]	9.81
TAAATACTAATATGTACACACATATAGATATAGATT [CACACA_site7247]	9.8
TTAAATAGATAAACTAAACACACAAAAAAAAAAAAA [CACACA_site8308]	9.78
TGTGCAAGATTTTTCTGTACATATATATAAATATAT [XGTACX_site1796]	9.42
AAATATTCTTGTTTAATACACACTGTAGTATTATAT [CACACA_site433]	9.83
CTATTATAATATTTTACACACCATGTAAAATATATA [CACACA_site3206]	9.61
ATCATTCTTCATTTGTCACACATGATAAAAATATAT [CACACA_site4953]	9.7
CTATTTTGGATGTGTACACATATATATATTTATATT [CACACA_site5706]	9.9
TTTTTTAAGTAATGAAATGATTTTCTTATAGAATAA [GTGCAC_negctrl_site395]	9.15
CATTAACATTTTATTACACACAATAATTTATAAGTA [CACACA_site4083]	9.6

Sequence	gcPBM binding intensity (ln)
ATTTATATTTGTATTTGTACTTATATTTATATTTAT [XGTACX_site1540]	10.1
GCTTTTGTCATGTGCACACACGTATATATTATATAT [CACACA_site6146]	10.9
AAAAAGGTTAAGGTAGTGCATAATAAAGAATATTAA	9.75
TATGTGCCAAAACACACACACATATATATATATATA [CACACA_site469]	10
TAGGCCTTAAATCGTGTGCACTTTTTTTTTTTTTTT	9.77
CAAATTATTATTTAAGCACACATGTTTATTTTTTTT [CACACA_site2672]	9.8
TTTTTTTTTTTTTTTTTTGGTGAGAGAAGAAAATTC [CACACA_negctrl_site950]	8.82
AAATATATCAATATATATATATATATATATATATAT [XGTACX_negctrl_site544]	9.42
TTTTGTACAAAAATAATGCACACTATATCAAGTTTT [CACACA_site3595]	9.68
ATATAAAAAGGAAAAAGTACAAAAAAATGTTTGTGA [XGTACX_site8552]	9.64
AAGAAAATATATTCACATGAAGAATTAAAATAAAAC [TGCATGCA_negctrl_site119]	9.76
ATTTATTTATATAATACACACAAATATCTTAATTAA [CACACA_site3993]	9.51
TGGATATAAAACAACGTGCACTTGGTTGATTTTAAA [GTGCAC_site9900]	9.59
TATGGTAAATACAACACACACACATATGTATTTATA [CACACA_site4666]	10.3
AAAAAAAAAAAAAATTGTACATAATAAAAATATGGA [XGTACX_site3189]	9.47
TGTTTATTCTTTAAATATTATTCAAATACTACAAGT [CACACA_negctrl_site746]	9.41
CACAGACACGGACACACACACACACCCATATATATA [CACACA_site4354]	11.3
ATACAAGAATTAAACACACACAAAATATAAATTCTT [CACACA_site3005]	10.1
AGCAACCTGAAAAAATTACTCTTTCTTAAACAAATT [XGTACX_negctrl_site266]	9.37
ACCTGTAAAAATGTTTATATATATATATATATATAT [CACACA_negctrl_site1500]	9.95
TTAAGGATTAAGGTGTGTACATATAAATATTATATA [XGTACX_site7532]	9.68
AATATTAAATGAAAAAGTACAAACAGTCCTATATTA [XGTACX_site1926]	9.63
